We go through 34 compounds from the supplement of paper PMC12582362.

Counter-ions that a name gives are not always drawn. Hit rate of the full screen: of about 1,500 compounds, about 30 (2%) showed activity.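 Rule for the calls: active = robust z-score below -2; a few such results were not called.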 Some of the results follow.

The test system of this test is optoTopBP1 Flp-In 293 T-REx (HEK293) cells. As to the kind of experiment: light-induced TopBP1 condensate (nuclear foci) count, plate-normalised robust z-score vs non-control wells; higher = more TopBP1 condensates (negative = condensation inhibitor), active = hit call of the paper. The settings on record: 10 µM; incubation time 2 h.
As to `CN1CCN(c2c(F)cc3c(=O)c(C(=O)O)cn4c3c2SCC4)CC1` [Rufloxacin], the “light-induced TopBP1 condensate (z-score)” value is inactive: -0.0947.
As to `COC(=O)C1=C(C)NC(C)=C(C(=O)OCC(C)C)C1c1ccccc1[N+](=O)[O-]` (centres undefined) [Nisoldipine], the “light-induced TopBP1 condensate (z-score)” value was inactive: 0.901.
The value for `CN(C)CCOC(c1ccc(Cl)cc1)c1ccccn1` (centres undefined) [Carbinoxamine maleate salt] was inactive: 0.304.
Take `O=C1CCc2ccc(OCCCCN3CCN(c4cccc(Cl)c4Cl)CC3)cc2N1` [Aripiprazole]: the “light-induced TopBP1 condensate (z-score)” value is inactive: 0.241.
In the case of `NC(=O)NC1NC(=O)NC1=O` (centres undefined) [Allantoin] it was inactive: 0.7; in that of `CNCc1cc(-c2ccccc2F)n(S(=O)(=O)c2cccnc2)c1` [Vonoprazan], inactive: -0.12; in that of `O=C1C(O)=C([C@H]2CC[C@H](c3ccc(Cl)cc3)CC2)C(=O)c2ccccc21` [Atovaquone], inactive: -0.809.
In the case of `CC(C)NCC(O)c1ccc(O)c(O)c1` (single isomer, unassigned; (-)) [(-)-Isoproterenol hydrochloride] it was inactive: 1.04.
In the case of `Cc1ccccc1C(OCCN(C)C)c1ccccc1` (centres undefined) [Orphenadrine hydrochloride] it was inactive: -1.06; in that of `C#C[C@]1(O)CC[C@H]2[C@@H]3CCC4=C(CCC(=O)C4)[C@H]3CC[C@@]21C` [Norethynodrel], inactive: 0.785; in that of `NS(=O)(=O)c1cc2c(cc1Cl)NC(CC1CCCC1)NS2(=O)=O` (centres undefined) [Cyclopenthiazide], inactive: 0.348.
Consider `CC(C)(C)NCC(O)c1cc(O)cc(O)c1` (centres undefined) [Terbutaline hemisulfate], for which the “light-induced TopBP1 condensate (z-score)” value was inactive: 0.791.
In the case of `CC[N+](CC)(CC)CCOc1cccc(OCC[N+](CC)(CC)CC)c1OCC[N+](CC)(CC)CC` [Gallamine triethiodide], the “light-induced TopBP1 condensate (z-score)” value is inactive: 0.722.
With `CCOC(=O)[N-]c1c[n+](N2CCOCC2)no1` [Molsidomine], the “light-induced TopBP1 condensate (z-score)” value is inactive: -0.096.
Regarding `NCc1ccc(S(N)(=O)=O)cc1` [Mafenide hydrochloride], the “light-induced TopBP1 condensate (z-score)” value is inactive: -0.165.
The value for `CN[C@@H]1[C@H](O[C@H]2[C@H](O[C@H]3[C@H](O)[C@@H](O)[C@H](NC(=N)N)[C@@H](O)[C@@H]3NC(=N)N)O[C@@H](C)[C@]2(O)CO)O[C@@H](CO)[C@H](O)[C@H]1O` [Dihydrostreptomycin sulfate] was inactive: 0.864.
In the case of `CC/C(=C(\c1ccccc1)c1ccc(OCCN(C)C)cc1)c1ccccc1` [Tamoxifen citrate], the “light-induced TopBP1 condensate (z-score)” value was inactive: 0.351.
The value for `CCc1oc2ccccc2c1C(=O)c1cc(Br)c(O)c(Br)c1` [Benzbromarone] was inactive: 0.386.
In the case of `CC(=O)Nc1ccc(C(=O)O)cc1` [Acedoben] it was inactive: -0.512; in that of `CCCCC[C@H](O)/C=C/[C@H]1[C@H](O)CC(=O)[C@@H]1CCCCCCC(=O)O` [Alprostadil], inactive: 1.42.
As to `CCN1CCC[C@H]1CNC(=O)c1c(O)c(Cl)cc(Cl)c1OC` [Raclopride], the “light-induced TopBP1 condensate (z-score)” value is inactive: -0.245.
For `CC[C@@H]([C@H](C)O)n1ncn(-c2ccc(N3CCN(c4ccc(OC[C@@H]5CO[C@@](Cn6cncn6)(c6ccc(F)cc6F)C5)cc4)CC3)cc2)c1=O` [Posaconazole], the “light-induced TopBP1 condensate (z-score)” value was active: -2.52.
The value for `CN1CCC[C@@H]1CCO[C@](C)(c1ccccc1)c1ccc(Cl)cc1` [Clemastine fumarate] was inactive: -1.27.
For `CCOc1ccc(NC(C)=O)cc1` [Phenacetin], the “light-induced TopBP1 condensate (z-score)” value was inactive: 0.209.
Take `CC(C(=O)O)c1ccc(C(=O)c2cccs2)cc1` (centres undefined) [Suprofen]: the “light-induced TopBP1 condensate (z-score)” value is inactive: -0.434.
`COc1cc2ncnc(Nc3ccc(F)c(Cl)c3)c2cc1OCCCN1CCOCC1` [Gefitinib]: the “light-induced TopBP1 condensate (z-score)” value is inactive: 2.6.
With `COc1ccc(C(=O)c2ccccc2O)c(O)c1` [Dioxybenzone], the “light-induced TopBP1 condensate (z-score)” value was inactive: -0.671.
Take `CC(C)(C)NC[C@H](O)COc1ccccc1C1CCCC1` [Penbutolol sulfate]: the “light-induced TopBP1 condensate (z-score)” value was inactive: -0.793.
In the case of `Nc1nc2[nH]cc(CCc3ccc(C(=O)N[C@@H](CCC(=O)O)C(=O)O)cc3)c2c(=O)[nH]1` [Pemetrexed disodium] it was inactive: -1.43; in that of `CCN1CCN(Cc2ccc(Nc3ncc(F)c(-c4cc(F)c5nc(C)n(C(C)C)c5c4)n3)nc2)CC1` [Abemaciclib], inactive: -0.486.
The value for `COc1ccc(CN2CCN(C(c3ccc(F)cc3)c3ccc(F)cc3)CC2)c(OC)c1OC` [Lomerizine hydrochloride] was inactive: -0.988.
Turning to `CCc1ccc(C(=O)C(C)CN2CCCCC2)cc1` (centres undefined) [Eperisone HCl], the “light-induced TopBP1 condensate (z-score)” value is inactive: 1.18.
As for `CC(=O)Nc1cccc(O)c1` [Metacetamol], the “light-induced TopBP1 condensate (z-score)” value was inactive: -0.0278.
In the case of `Cc1cnc(C(=O)O)c[n+]1[O-]` [Acipimox] it was inactive: -0.457.
